The IC50 comes from the fitted curve, where viability falls to half of the control; where the fit passes the top or lowest dose, that dose stands as a limit. For AUC the same curve is integrated over the 256-fold range of doses and scaled to a fraction; the more sensitive the line, the further below 1. For part of these data: Any top dose called inferred was derived from the fitted curves, not read from the paper.
Assays:
Test in all cases: Viability of human cancer cell lines after 72 h of drug (GDSC screen)
[1] = compound: O=C(NOCC1CC1)c1ccc(F)c(F)c1Nc1ccc(I)cc1Cl [CI-1040]; settings: top dose 10 µM; top dose inferred
Description: (§1)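 Human cancer cell lines in 384-well plates, medium with 10% serum, drug for 72 h over a 256-fold dose range (nine 2-fold or five 4-fold steps up to the top dose). Adherent lines were fixed and stained with the nucleic acid dye Syto60, suspension lines read with resazurin; signal relative to control wells, capped at 0 and 100%. One two-parameter sigmoid per drug and line, fitted in a mixed model over all curves with the slope shared within a line.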

[2] = compound: CCCC[C@@H](C=O)NC(=O)[C@H](CC(C)C)NC(=O)[C@H](CC(C)C)NC(=O)OCc1ccccc1 [Z-LLNle-CHO]; settings: top dose 2.56 µM; top dose inferred
Description: as §1

[3] = compound: CN(C)C/C=C/C(=O)Nc1ccc(C(=O)Nc2cccc(Nc3nccc(-c4cccnc4)n3)c2)cc1 [ZG-10]; settings: top dose 10 µM; top dose inferred
Description: as §1

[4] = compound: Cn1nnc2c(C(N)=O)ncn2c1=O [Temozolomide]; settings: top dose 30 µM
Description: as §1

[5] = compound: COc1cc2c(Oc3ccc(NC(=O)C4(C(=O)Nc5ccc(F)cc5)CC4)cc3F)ccnc2cc1OCCCN1CCOCC1 [XL-880]; settings: top dose 5.12 µM; top dose inferred
Description: as §1

[6] = compound: CN1CCc2c(c3ccccc3n2Cc2ccc(C(=O)NO)cc2)C1 [Tubastatin A]; settings: top dose 20 µM
Description: as §1

[7] = compound: Oc1ccc2ccccc2c1SSc1c(O)ccc2ccccc12 [IPA-3]; settings: top dose 32 µM; top dose inferred
Description: as §1

[8] = compound: CCC(=O)N1CCN(c2ccc(-n3c(=O)ccc4cnc5ccc(-c6cnc7ccccc7c6)cc5c43)cc2C(F)(F)F)CC1 [JW-7-52-1]; settings: top dose 1.2 µM; top dose inferred
Description: as §1

Cell Line	AUC [1]	IC50 [1] [µM]	AUC [2]	IC50 [2] [nM]	AUC [3]	IC50 [3] [µM]	AUC [4]	IC50 [4] [µM]	AUC [5]	IC50 [5] [nM]	AUC [6]	IC50 [6] [µM]	AUC [7]	IC50 [7] [µM]	AUC [8]	IC50 [8] [nM]
A388 (skin, adherent)	0.856	9.98	0.743	896	0.772	4.42	0.98	> 30	0.73	1620	0.983	> 20	0.898	> 32	–	–
RPMI-8226 (myeloma, suspension)	0.692	1.99	0.688	496	–	–	0.985	> 30	0.828	2610	–	–	0.792	12.4	0.202	11.6
HT-144 (melanoma, adherent)	–	–	0.665	488	–	–	0.982	> 30	0.82	3400	0.968	> 20	0.781	14.9	0.26	14.1
MV-4-11 (leukaemia, suspension)	0.678	1.77	0.733	637	–	–	0.989	> 30	–	–	–	–	0.742	8.4	0.504	76.8
HOP-62 (lung adenocarcinoma, adherent)	0.833	6.4	0.796	1200	–	–	0.984	> 30	0.615	662	0.883	> 20	0.833	20.6	–	–
TE-11 (oesophagus, adherent)	0.881	8.93	0.834	1470	–	–	0.988	> 30	0.75	1550	0.99	> 20	0.974	> 32	–	–
MOLT-13 (T-cell lymphoblastic leukaemia, suspension)	0.82	4.85	–	–	–	–	0.97	> 30	0.494	309	0.695	4.09	–	–	0.711	271
CP67-MEL (melanoma, adherent)	–	–	0.576	301	–	–	–	–	–	–	–	–	–	–	–	–
DOHH-2 (B-cell lymphoma, suspension)	0.785	4.18	0.728	698	–	–	–	–	–	–	–	–	0.797	14.7	0.159	6.99
EM-2 (chronic myeloid leukaemia, suspension)	0.593	1.16	0.778	1180	–	–	0.966	> 30	0.433	205	0.89	> 20	0.978	> 32	0.542	99.3
HA7-RCC (kidney, adherent)	0.88	> 10	0.792	1290	–	–	0.982	> 30	0.588	572	0.984	> 20	0.983	> 32	0.251	13.3
SK-UT-1 (soft tissue, adherent)	0.866	7.6	0.775	924	–	–	0.974	> 30	0.841	3100	0.988	> 20	0.899	> 32	0.319	24.7
MFH-ino (soft tissue, adherent)	0.737	3.39	0.783	1280	–	–	0.978	> 30	0.758	2070	0.963	> 20	0.956	> 32	0.352	27
PSN1 (pancreas, adherent)	0.592	1.07	0.689	489	–	–	0.991	> 30	0.439	225	0.832	10.1	0.695	6.38	0.241	15.6
BICR10 (head and neck, adherent)	0.908	> 10	–	–	0.883	> 10	0.969	> 30	0.77	2250	0.985	> 20	0.902	> 32	–	–
HCT-15 (large intestine, adherent)	0.91	> 10	–	–	0.985	> 10	0.984	> 30	0.671	988	0.975	> 20	0.84	24.1	–	–
VMRC-RCZ (kidney, adherent)	0.885	> 10	–	–	0.766	4.28	0.978	> 30	0.672	1050	0.971	> 20	0.765	13.7	–	–
Hs766T (pancreas, adherent)	0.629	1.59	–	–	0.946	> 10	0.98	> 30	0.833	4940	0.981	> 20	0.939	> 32	–	–
DoTc2-4510 (cervix, adherent)	0.935	> 10	–	–	0.71	2.36	0.986	> 30	0.753	1630	0.983	> 20	0.726	8.42	–	–
8505C (thyroid, adherent)	0.693	2.25	–	–	0.748	3.39	0.982	> 30	0.671	987	0.954	> 20	0.739	10.1	–	–
MOG-G-CCM (glioma, adherent)	0.837	8.31	–	–	0.712	2.77	0.979	> 30	0.539	415	0.918	> 20	0.882	> 32	–	–

— the supplement of paper PMC4967469
